SMILES strings stand for the structures. The whole screen tested about 110,000 compounds, of which about 230 (0.21%) showed an effect of 50% or more. The list shows a part of the results.
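Also: 30 min substrate incubation versus DMSO and 10 µM JCP410 controls.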

The target in this experiment is DPAP1 (Plasmodium falciparum, UniProt Q8IIJ9). Description: primary screen, percent inhibition; read by cleavage of a fluorogenic dipeptide substrate; higher = more effect of the substance. Set-up: species or system P. falciparum D10 trophozoite lysates; single well.
Sequence of DPAP1 (Q8IIJ9 whole entry, looked up): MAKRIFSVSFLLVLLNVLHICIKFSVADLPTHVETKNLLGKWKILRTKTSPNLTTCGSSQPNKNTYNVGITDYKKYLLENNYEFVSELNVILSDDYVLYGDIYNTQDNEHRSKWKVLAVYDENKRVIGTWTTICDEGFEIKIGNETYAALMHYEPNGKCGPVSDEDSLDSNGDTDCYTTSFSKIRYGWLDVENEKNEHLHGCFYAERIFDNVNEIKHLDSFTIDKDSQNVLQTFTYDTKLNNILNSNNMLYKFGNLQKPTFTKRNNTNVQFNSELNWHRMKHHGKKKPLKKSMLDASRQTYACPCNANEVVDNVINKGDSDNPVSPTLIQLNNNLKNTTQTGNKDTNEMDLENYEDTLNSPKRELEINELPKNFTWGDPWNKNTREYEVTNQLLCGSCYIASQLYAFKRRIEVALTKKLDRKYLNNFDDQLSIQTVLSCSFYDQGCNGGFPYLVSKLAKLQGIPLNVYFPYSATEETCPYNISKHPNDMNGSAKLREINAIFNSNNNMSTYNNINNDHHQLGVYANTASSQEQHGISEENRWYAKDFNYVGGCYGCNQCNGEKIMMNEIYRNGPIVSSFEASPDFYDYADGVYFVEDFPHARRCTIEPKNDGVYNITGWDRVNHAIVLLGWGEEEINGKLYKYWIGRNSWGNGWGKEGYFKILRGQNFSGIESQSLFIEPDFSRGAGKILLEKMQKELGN
Take `CN1C(=O)/C(=C/c2ccc(Cl)cc2)S/C1=N/c1cccc(C(=O)O)c1`: the “% Inhibition @ 10 uM” value came out at 1.57%. As for `Cc1ccc(S(=O)(=O)NCCC2=CCCCC2)cc1`, the figure is 0.413%; as for `O=C1N=C(N2CCOCC2)S/C1=C1\C(=O)Nc2ccc(Br)cc21`, -2.29%. The result for `C=CCOc1ccc(C2c3c(oc4ccccc4c3=O)C(=O)N2c2nncs2)cc1` (centres unmarked) reads 2.1%. As for `C/C(=N\O)c1ccc(-c2ccccc2)cc1`, the figure is -4.61%. For `Cc1ccc(-c2cc(C(=O)N3CC=C(c4ccccc4)CC3)[nH]n2)cc1C`, the “% Inhibition @ 10 uM” value is -3.88%. The result for `O=C(/C=C/c1ccc(Cl)cc1)NCCN1CCOCC1` reads -5.16%. The result for `O=C(NCc1ccccc1)c1cccc(S(=O)(=O)N2CCCCC2)c1` reads -5.41%; that for `CC[C@H](NC(=O)[C@H](Cc1nccn1Cc1ccccc1)NC(=O)c1ccccc1)C(=O)c1nc2ccccc2o1`, -3.49%; that for `CC1=C(c2ccc(C)cc2)S(=O)(=O)N=C1NC1CCCc2ccccc21` (centres unmarked), -1.08%.

`CCOc1ccc(-c2cc(NC(=O)c3ccc(OC)c(OC)c3)c(C(=O)O)s2)cc1`: the “% Inhibition @ 10 uM” value was 2.84%.

For the compound `CCCCNC(=O)c1cc(-c2cccnc2)nc2ccc(S(=O)(=O)N3CCCCCC3)cc12`, the “% Inhibition @ 10 uM” value came out at 0.718%. As for `CC(C)Oc1ccc(C(CC(=O)N2CCOCC2)c2ccccc2)cc1` (centres unmarked), the figure is 3.81%. As for `CCn1c(=O)c2sccc2n2c(CCCC(=O)NCCCOC(C)C)nnc12`, the figure is 2.71%.

As for `CCOC(=O)C1=C(C)OC(N)=C(C#N)C1c1cccc(O)c1` (centres unmarked), the “% Inhibition @ 10 uM” value amounted to 4.01%.

Consider `COc1cccc(C(=O)N(c2ccccc2)C2CC(C)N(C(C)=O)c3ccccc32)c1` (centres unmarked), for which the “% Inhibition @ 10 uM” value is given as -0.318%. As for `CCCN1CCN(C(=O)NCc2noc3ccc(C)cc23)CC1`, the figure is -6.47%; as for `CCOC(=O)N1CCN(C(=O)c2ccc3nc(N4CCOCC4)sc3c2)CC1`, -2.37%. The result for `CC[C@H](NC(=O)C(Cc1c[nH]c2cccc(C)c12)NC(=O)c1ccc(-c2ccccc2Cl)cc1)C(=O)c1nc2ccccc2o1` (some centres unmarked) reads -8.81%. On to `O=c1c(-c2ccccc2)c(N(CCO)Cc2ccccc2)c1=O`, for which the “% Inhibition @ 10 uM” value is listed as -9.49%.

Turning to `COc1ccc(C(=O)c2c(C)n(C)c(=O)n(C)c2=O)cc1`, the “% Inhibition @ 10 uM” value was -3.96%.

With `COc1ccc(C(=O)NCCNC2=NS(=O)(=O)c3ccccc32)cc1`, the “% Inhibition @ 10 uM” value was -1.4%. With `CC(C)(C)NC(=O)/C(=C\c1ccc(Br)cc1)NC(=O)c1cccs1`, the “% Inhibition @ 10 uM” value was -0.759%. As for `Cc1cc(C)c(S(=O)(=O)NCc2ccc(C(=O)NC3CCCC3)cc2)c(C)c1`, the “% Inhibition @ 10 uM” value was found to be 1.69%. With `Nc1sc(-c2ccccc2)c(-c2ccccc2)c1C(=O)O`, the “% Inhibition @ 10 uM” value is 6.74%.

Regarding `CCOc1ccc(-c2csc(/C(C#N)=C/c3ccc(OC)cc3)n2)cc1`, the “% Inhibition @ 10 uM” value is reported as -0.771%. The result for `COc1ccc(-c2cc(C(=O)Nc3cnn(Cc4ccc(Cl)cc4Cl)c3)no2)cc1` reads 7.44%; that for `CNC(=O)c1cc2c(=O)n3ccccc3nc2n(CCc2ccccc2)c1=N`, -5.14%. The result for `COc1ccc(C2Nc3ccccc3N=C3CC(C)(C)CC(O)=C32)cc1O` (centres unmarked) reads -6.44%; that for `O=C(CC1(O)C(=O)Nc2ccccc21)c1ccc(Br)cc1` (centres unmarked), 6.31%. As for `CCn1c2ccccc2c2cc(CNC(C)COC)ccc21` (centres unmarked), the figure is -5.16%; as for `CCOc1ccc(/N=c2\scc(-c3ccc(OC)cc3)n2CCO)cc1`, 1.15%; as for `O=C(O)C1CCCCC1C(=O)N1CCOCC1` (centres unmarked), -2.7%. As for `CCn1c(C)c(CCC(=O)NC(C)CCc2ccco2)c(=O)n2nc(-c3ccccc3OC)cc12` (centres unmarked), the “% Inhibition @ 10 uM” value is -6.09%. As for `CSC1=N/C(=C\c2ccc(C)o2)C(=O)S1`, the figure is 4.18%. As for `CCc1nnc2sc(-c3cccnc3)nn12`, the figure is -4.67%. As for `Cc1sc(NC(=O)C2CCCCC2C(=O)O)nc1-c1ccccc1` (centres unmarked), the figure is -0.795%; as for `COCCNC(=O)C(NC(=O)c1ccc(C23CC4CC(CC(C4)C2)C3)cc1)C(C)C` (centres unmarked), -9.05%. As to `CC/N=c1\c(NS(=O)(=O)c2ccc(Cl)cc2)c(O)oc2ccccc12`, the “% Inhibition @ 10 uM” value is reported as -1.68%. Take `Nc1nc(O)cc(-c2cccc(F)c2)n1`: the “% Inhibition @ 10 uM” value is on record as -10.7%. The result for `COc1ccc(CNC(=O)CCNS(=O)(=O)c2ccc(Cl)cc2)cc1` reads 4.61%; that for `C=C(C)CN(CC)Cc1ccc(C(=O)OC)cc1`, -4.14%; that for `CCc1c(C)nc2c(C)cccc2c1O`, -6.83%. The result for `Cc1ccc(Cl)cc1NC(=O)c1ccc(Br)cc1` reads -1.48%; that for `CCc1ccc(S(=O)(=O)c2nnn3c2nc(N(CC)CC)c2sccc23)cc1`, -2.55%. As for `Cc1ccc2oc(C(=O)NCCc3ccc(S(N)(=O)=O)cc3)cc(=O)c2c1`, the figure is 0.248%; as for `CCOc1ccc(C(=O)Nc2ccc(C(C)=O)cc2)cc1`, 0.0265%.

In the case of `Cc1ccc(S(=O)(=O)N2CCN(C(=O)N3CCOCC3)CC2)cc1`, the “% Inhibition @ 10 uM” value is on record as 1.91%. As for `COc1ccc(-c2nc(S)c3c(n2)Oc2ccccc2C3)cc1O`, the figure is 32.1%; as for `Cc1ccccc1NC(=O)c1ccc(C)c(S(=O)(=O)Nc2ccc(C(=O)O)cc2)c1`, -0.661%.

The values above are taken from article PMC6919601, “Identification of Plasmodium dipeptidyl aminopeptidase allosteric inhibitors by high throughput screening” (PLoS ONE, 2019).
